Experimental data taken from the supplement of paper PMC7826260.
The other results are listed elsewhere or left out. Cleavage of a single-stranded DNA pool by Rep nickase domains was read by sequencing for 1 h at 37 °C with 3 µM enzyme; only the middle of the 90-letter strands is printed. Numbers give uncut DNA relative to the enzyme-free pool, as log2; strong cutting gives strongly negative numbers. There is no active / inactive call. Because reads are shares of a total, they shift together; uncut strands gain when others are lost, and binding without cutting may add a little.

Columns and labels:
Assay in all cases: uncleaved DNA left, log2 of reads against the no-enzyme library (log2 ratio); higher = less cleavage (more negative = more Rep cleavage of the k-mer); sequences stand for … in CTCGTCCG…ACCGGAGA
[1] = test system: T1, Rep nickase domain of Muscovy duck circovirus
T1 sequence (protein, residues 1-111, tag omitted): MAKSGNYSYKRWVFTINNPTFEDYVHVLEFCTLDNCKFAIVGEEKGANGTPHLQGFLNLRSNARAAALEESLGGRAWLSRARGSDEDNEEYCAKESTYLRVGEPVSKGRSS
Experimental: (§1)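 A pool of 90-nt single-stranded DNAs with seven random bases just before the constant AC of the nick site (name = the seven bases) was cut by 3 µM recombinant His6-SUMO-tagged Rep nickase domain (300 nM DNA, 50 mM HEPES pH 8.0, 50 mM NaCl, 1 mM MnCl2, 1 h, 37 °C, three replicates). Uncut DNA was amplified and sequenced.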

[2] = test system: T2, Rep nickase domain of banana bunchy top virus
T2 sequence (protein, residues 1-94, tag omitted): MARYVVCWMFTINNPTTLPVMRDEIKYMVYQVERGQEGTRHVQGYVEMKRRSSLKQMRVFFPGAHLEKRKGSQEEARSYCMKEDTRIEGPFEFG
Experimental: as §1

[3] = test system: T3, Rep nickase domain of cabbage leaf curl virus
T3 sequence (protein, residues 1-116, tag omitted): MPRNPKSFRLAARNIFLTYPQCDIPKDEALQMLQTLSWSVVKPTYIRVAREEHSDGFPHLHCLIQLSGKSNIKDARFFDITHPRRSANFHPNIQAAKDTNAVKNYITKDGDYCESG
Experimental: as §1

[4] = test system: T4, Rep nickase domain of chickpea chlorotic dwarf virus
T4 sequence (protein, residues 1-124, tag omitted): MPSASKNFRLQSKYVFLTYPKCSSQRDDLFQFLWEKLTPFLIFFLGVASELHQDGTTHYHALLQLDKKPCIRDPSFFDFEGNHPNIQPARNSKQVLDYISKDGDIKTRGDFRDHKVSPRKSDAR
Experimental: as §1

[5] = test system: T5, Rep nickase domain of faba bean necrotic yellows virus
T5 sequence (protein, residues 1-98, tag omitted): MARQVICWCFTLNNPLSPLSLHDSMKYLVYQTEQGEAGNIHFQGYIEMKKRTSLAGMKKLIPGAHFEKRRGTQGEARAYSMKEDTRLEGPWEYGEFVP
Experimental: as §1

[6] = test system: T6, Rep nickase domain of maize striate mosaic virus
T6 sequence (protein, residues 1-117, tag omitted): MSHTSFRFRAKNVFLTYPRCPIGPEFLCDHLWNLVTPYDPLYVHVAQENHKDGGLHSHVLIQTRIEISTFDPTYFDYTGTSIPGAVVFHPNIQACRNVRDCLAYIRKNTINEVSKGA
Experimental: as §1

[7] = test system: T7, Rep nickase domain of porcine circovirus 2
T7 sequence (protein, residues 2-116, tag omitted): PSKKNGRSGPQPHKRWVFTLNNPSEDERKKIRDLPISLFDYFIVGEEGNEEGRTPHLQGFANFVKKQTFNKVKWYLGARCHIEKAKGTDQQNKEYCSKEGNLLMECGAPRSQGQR
Experimental: as §1

[8] = test system: T8, Rep nickase domain of tomato golden mosaic virus
T8 sequence (protein, residues 1-124, tag omitted): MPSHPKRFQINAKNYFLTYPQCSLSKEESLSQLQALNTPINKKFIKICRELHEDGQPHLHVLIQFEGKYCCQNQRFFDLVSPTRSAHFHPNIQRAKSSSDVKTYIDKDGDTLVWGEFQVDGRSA
Experimental: as §1

[9] = test system: T9, Rep nickase domain of tomato yellow leaf curl virus
T9 sequence (protein, residues 1-136, tag omitted): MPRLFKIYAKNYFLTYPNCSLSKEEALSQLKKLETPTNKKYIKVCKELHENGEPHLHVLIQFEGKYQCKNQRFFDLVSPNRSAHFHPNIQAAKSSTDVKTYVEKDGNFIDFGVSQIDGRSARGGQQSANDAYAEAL
Experimental: as §1

[10] = test system: T10, Rep nickase domain of wheat dwarf virus
T10 sequence (protein, residues 1-137, tag omitted): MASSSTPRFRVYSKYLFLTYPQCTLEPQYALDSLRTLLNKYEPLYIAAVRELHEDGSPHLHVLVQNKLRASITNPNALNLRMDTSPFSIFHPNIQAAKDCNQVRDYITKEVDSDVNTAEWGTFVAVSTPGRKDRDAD
Experimental: as §1

| Sequence | uncleaved DNA left (log2) [1] | uncleaved DNA left (log2) [2] | uncleaved DNA left (log2) [3] | uncleaved DNA left (log2) [4] | uncleaved DNA left (log2) [5] | uncleaved DNA left (log2) [6] | uncleaved DNA left (log2) [7] | uncleaved DNA left (log2) [8] | uncleaved DNA left (log2) [9] | uncleaved DNA left (log2) [10] |
| --- | --- | --- | --- | --- | --- | --- | --- | --- | --- | --- |
| GGACAAG | 0.212 | 0.048 | 0.76 | 1.82 | 0.00485 | 1.95 | 0.254 | 0.0575 | 0.0646 | 0.212 |
| TCACAGT | -0.0174 | 0.0451 | -0.213 | -1.41 | 0.00565 | -0.765 | 0.031 | -0.0793 | 0.0807 | -0.0597 |
| TCATTGC | -0.131 | -0.179 | -0.396 | 0.791 | -0.0123 | 0.186 | -0.0382 | -0.237 | 0.0393 | -0.102 |
| TGGGGGT | -0.00397 | -0.0983 | 0.335 | 1.37 | 0.0286 | 1.8 | 0.181 | 0.0158 | -0.17 | -0.129 |
| GGGACGG | 0.0668 | 0.171 | 0.986 | 2.05 | 0.0425 | 2.41 | 0.324 | 0.145 | 0.0491 | 0.182 |
| AAAAAAG | 0.121 | 0.0403 | -0.651 | -0.441 | 0.243 | -1.2 | 0.323 | 0.157 | 0.133 | 0.0992 |
| CTAGGGT | -0.079 | 0.00647 | 0.183 | 1.29 | -0.154 | 1.69 | -0.0112 | 0.0611 | -0.115 | -0.0877 |
| TATAGGT | 0.062 | -0.058 | 0.432 | 0.966 | 0.0329 | 1.62 | -0.0443 | 0.0641 | -0.157 | 0.0422 |
| CATAGAG | 0.0301 | -0.0403 | -0.673 | -0.389 | 0.167 | -1.05 | 0.267 | 0.08 | 0.0686 | 0.0333 |
| ACACACG | 0.0309 | -0.0259 | -0.458 | 0.792 | 0.0644 | -0.177 | 0.137 | -0.0176 | -0.0271 | -0.165 |
| AAGTTTA | 0.0669 | -0.187 | -0.302 | -2.23 | -0.229 | -0.307 | -3.34 | -0.0028 | 0.00765 | -0.18 |
| AAGATTC | 0.195 | 0.201 | 0.0961 | -0.228 | 0.181 | -0.331 | 0.0706 | 0.0162 | 0.0151 | 0.149 |
| TGTTATT | -3.19 | -2.75 | -0.176 | -2.58 | -0.391 | 0.433 | -3.75 | -0.336 | 0.0756 | -1.26 |
| GCTTTTT | -1.59 | -0.0544 | 0.136 | -0.722 | -0.0286 | 0.419 | -2.45 | 0.0296 | 0.116 | -0.158 |
| CCTACTC | -0.121 | -0.24 | -0.201 | -2.27 | -0.0965 | -0.657 | -0.122 | -0.192 | -0.215 | -0.232 |
| TGCACCA | -0.0331 | 0.121 | 0.194 | -0.508 | 0.0426 | -0.156 | -0.187 | 0.023 | 0.094 | 0.133 |
| GGACCCT | -0.0164 | -0.0368 | 0.713 | 1.53 | -0.0797 | 2.11 | 0.00157 | -0.066 | -0.0111 | 0.128 |
| GGGACCG | 0.0286 | 0.181 | 0.826 | 1.92 | -0.0512 | 2.16 | 0.303 | 0.0711 | 0.00996 | 0.187 |
| GCTAGGA | 0.0135 | 0.0168 | 0.0944 | 0.513 | 0.0195 | 0.0653 | 0.0773 | 0.0194 | 0.0547 | 0.0189 |
| TATAGAA | 0.0807 | -0.0739 | 0.176 | -0.39 | 0.119 | -0.544 | -0.00698 | 0.0996 | 0.0275 | 0.0168 |
| TACAAAA | -0.0342 | 0.148 | -0.0136 | -0.945 | 0.0469 | -0.574 | -0.0457 | -0.118 | -0.0329 | -0.0375 |
| AGACAAC | -0.0111 | 0.0535 | 0.41 | 0.349 | 0.0289 | 1.35 | 0.112 | -0.0763 | 0.0118 | 0.0546 |
| TTGGGGG | 0.000961 | -0.106 | 0.159 | 0.182 | -0.0174 | -0.0911 | 0.107 | -0.0433 | -0.12 | -0.0135 |
| AAGGCCT | -0.171 | -0.117 | 0.0405 | -0.443 | -0.159 | 0.801 | -0.597 | 0.0798 | -0.131 | 0.00393 |
| TGTATAG | 0.143 | 0.0399 | -0.59 | -0.414 | 0.156 | -0.901 | 0.259 | 0.0764 | 0.127 | 0.101 |
| GTACAAA | 0.0362 | 0.0889 | 0.317 | 0.862 | 0.0209 | 1.57 | 0.0385 | 0.132 | 0.148 | 0.171 |
| GAGACGG | 0.0247 | 0.119 | 0.272 | 1.19 | -0.0115 | 1.9 | 0.147 | 0.0958 | 0.0636 | 0.106 |
| CCGTTGA | 0.0275 | -0.0486 | -0.16 | -0.242 | 0.0925 | -0.588 | 0.0282 | 0.0354 | 0.123 | -0.00791 |
| TGGTAGT | -1.04 | -0.0128 | 0.201 | 0.149 | -0.234 | 0.134 | -3.25 | 0.0544 | 0.114 | 0.0711 |
| AATTTAC | -0.0701 | 0.00948 | -0.209 | -2.4 | -0.00597 | -1.04 | -0.161 | -0.0995 | 0.00448 | -0.098 |
